Results reported in PubChem BioAssay AID1745853 (National Center for Advancing Translational Sciences (NCATS), 2022).
Values joined by “and” are separate entries in the source; they are usually repeats but may differ in a detail not shown here. Identical values can stand only once. This is one part of the list. These are further read-outs of the screen, such as a control signal, another cell line or another target. No call is given for them.

How the values were obtained:
Test in all cases: Primary Screen for Target Class Profiling of Small Molecule Inhibitors of Methyltransferases
[1] = molecular target: Glycine N-methyltransferase (Homo sapiens) (UniProt Q14749); settings: purified enzyme, MTase-Glo SAH luminescence; measured here: GNMT inhibition; at 40 µM; stronger effect = lower value
Method in brief: (§1)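 Each enzyme was assayed with SAM and its substrate. SAH formation detected by MTase-Glo luminescence; single-point 40 uM screen[…].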

[2] = molecular target: Guanidinoacetate N-methyltransferase (Homo sapiens) (UniProt Q14353); settings: purified enzyme, MTase-Glo SAH luminescence; measured here: GAMT inhibition; at 40 µM; stronger effect = lower value
Method in brief: as §1

[3] = molecular target: Histamine N-methyltransferase (Homo sapiens) (UniProt P50135); settings: purified enzyme, MTase-Glo SAH luminescence; measured here: HNMT inhibition; at 40 µM; stronger effect = lower value
Method in brief: as §1

[4] = molecular target: Nicotinamide N-methyltransferase (Homo sapiens) (UniProt P40261); settings: purified enzyme, MTase-Glo SAH luminescence; measured here: NNMT inhibition; at 40 µM; stronger effect = lower value
Method in brief: as §1

[5] = molecular target: Phenylethanolamine N-methyltransferase (Homo sapiens) (UniProt P11086); settings: purified enzyme, MTase-Glo SAH luminescence; measured here: PNMT inhibition; at 40 µM; stronger effect = lower value
Method in brief: as §1
% is scaled to controls: 0 for no effect and ±100 for the full control effect.

| Compound | activity change, negative = inhibition [1] | activity change, negative = inhibition [2] | activity change, negative = inhibition [3] | activity change, negative = inhibition [4] | activity change, negative = inhibition [5] |
| --- | --- | --- | --- | --- | --- |
| COc1cccc(CN2C(=O)c3cc4ccc(OC)cc4n3CC2(C)C(=O)NC2CCCCCC2)c1 (stereo not drawn) | 0.993% | 0% | 4.32% | -14.5% | -2.74% |
| Cc1c(NC(=O)CCc2cc3n(n2)CCNC3)cccc1-c1nncn1C | -0.96% | -0.085% | -1.26% | -2.28% | -25% |
| O=C(NC[C@H]1O[C@@H](Cc2nc(-c3ccc(OC(F)(F)F)cc3)no2)[C@H](O)[C@@H]1O)C1CC1 | 0.21% | -0.388% | 1.24% | -1.58% | -6.9% |
| COc1ccc(NC(=O)N[C@H]2C[C@@H](c3nc(-c4ccncc4)no3)N(C)C2)cc1 | -6.68% | -7.89% | -3.73% | -13.3% | -26.2% |
| CCCn1c(=O)c2ccccc2n2c(=O)n(CC(=O)NCc3ccc(Cl)cc3)nc12 | -6.64% | 2.3% | 2.67% | -13.6% | -2.64% |
| CC(C)OCCCNc1nc2c(-c3ccccc3)nnn2c2ccccc12 | 4.95% | 3.27% | 5.33% | 7.58% | -2.26% |
| Cc1cc(C)cc(N2C(=O)c3cc4sccc4n3CC2(C)C(=O)NC2CCCCCC2)c1 (stereo not drawn) | 1.34% | 0% | 0.497% | 5.82% | -2.99% |
| CNC(=O)N1CCn2cccc2C1C (stereo not drawn) | -0.524% | 0.069% | 0.379% | -1.44% | 3% |
| Cc1nc(N2CCC(C(=O)NCCC3=CCCCC3)CC2)cc(C(F)(F)F)n1 | -4.58% | -3.9% | -5.79% | -9.84% | -6.21% |
| O=C(Cn1c(=O)oc2cc(S(=O)(=O)N3CCCC3)ccc21)NCCC1=CCCCC1 | 0.53% | 0% | 1.02% | -5.66% | -41.7% |
| Cc1ccccc1C(=O)c1ccc(Nc2ccc(Br)cc2N)cc1Cl | -6.64% | -25.8% | -2.71% | -35.3% | -16.3% |
| CC(=O)O[C@H]1C(=O)[C@@]2(C)C([C@H](OC(=O)c3ccccc3)[C@]3(O)C[C@H](OC(=O)[C@H](O)[C@@H](NC(=O)c4ccccc4)c4ccccc4)C(C)=C1C3(C)C)[C@]1(OC(C)=O)CO[C@@H]1C[C@@H]2O (stereo partly drawn) | -2.62% | 12.9% and 13.6% and -6.26% | -0.379% | -11.5% and -6.01% and -19.1% | -7.13% and -0.092% and -5.82% |
| COc1cc(CC2(CCC(=O)N3CCC(Oc4cccc(F)c4)CC3)CCC(=O)N2)ccc1F (stereo not drawn) | -1.24% | -1.07% | -0.457% | -1.84% | 2.58% |
| CC(=O)N1CCC(N2CCOC[C@H]2c2ncc(C(C)(C)C)[nH]2)CC1 | -3.88% | -3.26% | -0.866% | -12.3% | -4.92% |
| CCN1CCN(c2ccc(Nc3ccc(-c4ccc(C(N)=O)cc4)n4ncnc34)cc2)CC1 | – | 6.34% | – | -71.8% | -17.5% |
| COc1ccc(OC)c2c1cc1n2CC(C)(C(=O)NC2CCCCCC2)N(CCC(C)C)C1=O (stereo not drawn) | 30.8% | -2.7% | -0.292% | -4.39% | -15.6% |
| COCCCN1C(=O)c2cc3ccccc3n2CC1(C)C(=O)NC1CCCC1 (stereo not drawn) | 3.43% | 0% | 2.67% | 5.08% | 0.42% |
| Cc1ccccc1CC(=O)Nc1cccc(-c2nnc3n2CCCC3)c1 | -3.77% | -0.338% | -4.82% | -5.11% | -2.31% |
| Cc1ccc(Cn2c(=O)c3ccccc3n3c(CCC(=O)NC4CCC(C)CC4)nnc23)cc1 (stereo not drawn) | -10.1% | -1.31% | -6.12% | -8.89% | -10.3% |
| C=C1C(=O)O[C@@H]2C[C@H](C)C3=CC(=O)[C@H](O)[C@@]3(C)C[C@H]12 | -0.893% | -10.3% | 7.41% | -22.1% | 0.734% |
| COc1ccc(CCNC(=O)c2cc3n(n2)CC(C)(C(=O)NCc2ccc(F)cc2)N(C)C3=O)c(OC)c1 (stereo not drawn) | -2.02% | 0.715% | -9.02% | -0.508% | -0.353% |
| CCOc1ccc2c(n1)CCN(C(=O)C1(c3ccccc3)CC1)C2 | -15.4% | -5.88% | -7.16% | -35.8% | -7.26% |
| Cc1ccc(CN2C(=O)c3cnn(-c4ccccc4)c3-n3cccc3C2C(=O)NC2CCCCCC2)cc1 (stereo not drawn) | -2.4% | 0.42% | 4.21% | 4.98% | 4.63% |
| CC(C)CCNC(=O)C1(C)Cn2nc(C(=O)NCCN3CCCCC3)cc2C(=O)N1C (stereo not drawn) | 5.69% | 0.584% | 2.16% | 6.67% | 2.6% |
| CCCn1c(=O)c2ccccc2n2c(SCc3ccc(Cl)cc3)nnc12 | -9.21% | 0% | -0.101% | -12.2% | 2.86% |
| Cc1ccc(CN2C(=O)c3cc4occc4n3CC2(C)C(=O)NC2CCCCCC2)cc1 (stereo not drawn) | -8.59% | 2.93% | -2.12% | -7.06% | -3.31% |
| COc1ccccc1CNC(=O)C1c2c(n(C)c3ccccc23)SCC(=O)N1c1ccc(F)cc1F (stereo not drawn) | 10.6% | 0.769% | 5.75% | 0.402% | 8.41% |
| COc1ccc(-c2cc3n(n2)CC(C)(C(=O)NC2CCCCC2)N(c2cccc(Cl)c2)C3=O)cc1 (stereo not drawn) | 0.679% | 5.52% | -0.178% | -1.63% | -5.93% |
| COc1ccc(-c2cc3n(n2)CC(C)(C(=O)NCc2ccccc2)N(Cc2ccc(N(C)C)cc2)C3=O)cc1 (stereo not drawn) | 1.92% | 5.77% | -0.842% | 2.83% | -3.4% |
| Cn1c(=O)c2ccc(C(=O)NC3CCCC3)cc2n2c(SCC(=O)Nc3cccc(Cl)c3)nnc12 | -4.81% | -0.61% | 2.15% | -4.42% | 1.33% |
